Laboratory results taken from the supplement of paper PMC10600219.
Where a name gives a salt, the structure may show the parent alone. Over roughly 2,800 compounds, “cell viability relative to vehicle” has its median near 0.98; the lowest 2% begin near 0.45. The list shows a part of the results.

What follows are compounds tested on NCI-H2228 alectinib-DTP (assay: cell viability relative to vehicle (fraction of vehicle); NCI-H2228 is an ALK-positive lung cancer line and DTP means drug-tolerant persister; higher = less growth inhibition). Details: 100 nM; treatment time 6 days.
How it was run: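 Values give cell viability as a fraction of vehicle-treated cells. Parental and drug-tolerant persister NCI-H2228 cells (persisters made with 1000 nM of a targeted drug for 13 days) were exposed in 384-well plates to the 3114-agent TargetMol anti-cancer compound library at 100 nM, with DMSO as vehicle. ATP was then read after 6 days by the CellTiter-Glo 3D Cell Viability Assay.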

SMILES | cell viability
CC(C)(C)c1ccc(C(=O)CCCN2CCC(OC(c3ccccc3)c3ccccc3)CC2)cc1 [Ebastine] | 0.96
COc1cc(/C=C2/SC(=S)NC2=O)ccc1OCC(=O)O | 0.991
O=c1ccn([C@@H]2O[C@H](CO)[C@@H](O)[C@H]2O)c(=O)[nH]1 [Uridine] | 0.771
CC(C)n1c(/C=C/C(O)CC(O)CC(=O)O)c(-c2ccc(F)cc2)c2ccccc21 (stereo unspecified) [Fluvastatin sodium salt] | 0.869
O=c1c(O[C@@H]2O[C@H](CO)[C@@H](O)[C@H](O)[C@H]2O)c(-c2ccc(O)c(O)c2)oc2cc(O)cc(O)c12 | 0.978
O=c1c(O[C@@H]2O[C@H](CO)[C@@H](O)[C@H](O)[C@H]2O)c(-c2ccc(O)c(O)c2)oc2cc(O)cc(O)c12 [Isoquercitrin] | 1.13
N#CC(c1ccnc(OCc2ccc(CN3CCOCC3)cc2)n1)c1nc2ccccc2s1 (stereo unspecified) | 0.973
C[C@H](CC(=O)C[C@@H](C)[C@H]1C[C@H](O)[C@@]2(C)C3=C(C(=O)C[C@]12C)[C@@]1(C)CCC(=O)C(C)(C)[C@@H]1C[C@@H]3O)C(=O)O [Ganoderic acid A] | 1.03
COc1nnc2ccc(N3CCC(c4ccc(OCCN5CCN(C)C(=O)[C@H]5C)cc4)CC3)nn12.O=C(O)c1ccc2cc(O)ccc2c1 [AZD5153 6-Hydroxy-2-naphthoic acid] | 0.737
CCOC(=O)[C@H](CCc1ccccc1)N[C@@H](C)C(=O)N(CC(=O)O)C1Cc2ccccc2C1 [Delapril Hydrochloride] | 1.14
OC(CCN1CCCCC1)(c1ccccc1)C1CCCCC1 (racemic) [DL-trihexyphenidyl hydrochloride] | 0.964
C[C@H](Cn1cnc2c(N)ncnc21)OCP(=O)(O)O [Tenofovir] | 1.05
N#CC(=Cc1cc(Cl)cc(Cl)c1)c1cccnc1 | 0.973
COC(=O)Nc1ccc(-c2nc(N3CCOCC3)c3cnn(C4CCN(C(=O)OC)CC4)c3n2)cc1 | 0.855
COC(=O)N[C@H](C(=O)N[C@@H](Cc1ccccc1)[C@@H](O)CN(Cc1ccc(-c2ccccn2)cc1)NC(=O)[C@@H](NC(=O)OC)C(C)(C)C)C(C)(C)C [Atazanavir] | 0.89
N.N.O=C([O-])C[O-].[Pt+2] [Nedaplatin] | 0.894
NCCCC(O)(P(=O)(O)O)P(=O)(O)O [Alendronate sodium hydrate] | 1
Cc1ccnc(NS(=O)(=O)c2ccc(N)cc2)n1 [Sulfamerazine] | 0.882
COc1ccc(C[C@H](N)C(=O)N[C@H]2[C@@H](O)[C@H](n3cnc4c(N(C)C)ncnc43)O[C@@H]2CO)cc1 [Puromycin dihydrochloride] | 0.945
O=C(O)Cc1cccc(OCCCN(Cc2cccc(C(F)(F)F)c2Cl)CC(c2ccccc2)c2ccccc2)c1 | 0.83
Oc1ccccc1N=Cc1c(O)ccc2ccccc12 | 1.15
C[C@]1(c2nc3c(C(N)=O)cccc3[nH]2)CCCN1 [Veliparib] | 0.89
C[C@]1(c2nc3c(C(N)=O)cccc3[nH]2)CCCN1 [Veliparib dihydrochloride] | 0.96
CC(=O)N[C@@H](CS)C(=O)O [Acetylcysteine] | 1.06
O=c1cc(-c2ccccc2)oc2cc(O)c(O)c(O)c12 [Baicalein] | 0.999
CN1CCN(c2ccc(Nc3ncc4cc(C#N)c(=O)n(C5CCCC5)c4n3)cc2)CC1 | 1.05

SMILES | cell viability
CN(C)CCn1nnnc1SCC1=C(C(=O)O)N2C(=O)[C@@H](NC(=O)Cc3csc(N)n3)[C@H]2SC1 [Cefotiam hydrochloride] | 0.916
O=c1[nH]c2cc(C(F)(F)F)ccc2n1-c1cc(C(F)(F)F)ccc1O | 1.05
COc1cc(C2Oc3cc([C@H]4Oc5cc(O)cc(O)c5C(=O)[C@@H]4O)ccc3OC2CO)ccc1O (stereo partly specified) [Silibinin] | 1.05
C[C@@H](C(=O)Nc1ccc(Cl)cc1)[C@H]1CC[C@@H](c2ccnc3ccc(F)cc32)CC1 [Linrodostat] | 0.991
Cc1c(C)c2c(c(C)c1O)CCC(C)(C(=O)O)O2 (stereo unspecified) [Trolox] | 0.82
COc1ccc(S(=O)(=O)Nc2ccccc2C=Cc2ccncc2)cc1 | 0.541
Cn1ccnc1 [Saccharin 1-methylimidazole (SMI)] | 1.04
CS(=O)(=O)c1ccc(-c2cnc(NCc3ccco3)n3cnnc23)cc1 | 0.904
O=C1CCC[C@@H]2[C@H]3CCC[N+]4([O-])CCC[C@@H](CN12)[C@@H]34 (stereo partly specified) [Oxymatrine] | 0.953
CCn1nc(C2CCN(C(=O)CCO)CC2)nc1-c1cnc(N)c(-c2nnc(C(C)(C)C)o2)n1 | 1.01
C[C@@H]1O[C@@H](OC[C@H]2O[C@@H](Oc3c(-c4ccc(OCCO)c(OCCO)c4)oc4cc(OCCO)cc(O)c4c3=O)[C@H](O)[C@@H](O)[C@@H]2O)[C@H](O)[C@H](O)[C@H]1O [Troxerutin] | 1.18
CC[C@@H](C)c1ccc(NC(=O)Cn2cnc3c2c(=O)n(C)c(=O)n3C)cc1 (racemic) | 0.874
N#Cc1ccc(COC[C@H]2O[C@@H](n3c(NCc4ccc(Cl)c(Cl)c4)nc4c(N)ncnc43)[C@H](O)[C@@H]2O)cc1 | 0.889
C[C@]12C=CC(=O)C=C1CC[C@H]1[C@@H]3C[C@@H](O)[C@](O)(C(=O)CO)[C@@]3(C)C[C@H](O)[C@@]12F [Triamcinolone] | 0.845
CC(=O)O[C@H]1C[C@@H]2CC[C@@H]3[C@H](CC[C@@]4(C)[C@H]3C[C@H]([N+]3(C)CCCCC3)[C@@H]4OC(C)=O)[C@@]2(C)C[C@@H]1N1CCCCC1 [Vecuronium bromide] | 0.789
O=C(O[C@@H]1Cc2c(O)cc(O)cc2O[C@@H]1c1ccc(O)c(O)c1)c1cc(O)c(O)c(O)c1 [(-)-Epicatechin gallate] | 0.98
O=C(NCc1cccc(O)c1)c1cc2cc(F)ccc2[nH]1 | 0.955
Cc1coc2c1C(=O)C(=O)c1c-2ccc2c1CCCC2(C)C [Tanshinone IIA] | 0.868
Cc1cc2c(C(N)=O)cccc2n1-c1nc2c(c(NCc3ccccc3)n1)COCC2 | 0.923
CO/N=C(\C(=O)N[C@@H]1C(=O)N2C(C(=O)[O-])=C(C[N+]3(C)CCCC3)CS[C@H]12)c1csc(N)n1 [Cefepime Dihydrochloride Monohydrate] | 0.889
NCC1CCN(c2nccc(-c3ccc4ccccc4c3)n2)CC1 | 1
CNCCCC12CCC(c3ccccc31)c1ccccc12 [Maprotiline hydrochloride] | 1.1
O=C1Cc2c([nH]c3ccc(Br)cc23)-c2ccccc2N1 [KenPaullone] | 0.957
COc1cccc(C(=O)COc2ccc(CC3SC(=O)NC3=O)cc2)c1 (stereo unspecified) | 0.911
COc1ccc2c(c1)c(CC(=O)N1CCOCC1)c(C)n2C(=O)c1ccc(Cl)cc1 | 0.891
O=C(NCCN1CCOCC1)c1ccc(Cl)cc1 [Moclobemide] | 1.05

SMILES | cell viability
O=C(c1ccc(/C=C/c2n[nH]c3ccccc23)cc1)N1CCNCC1 | 0.838
C/C(=C\C(=O)Nc1ccccc1C(=O)O)c1ccc2ccccc2c1 | 0.942
C[C@H](Cc1cc2c(c(C(N)=O)c1)N(CCCO)CC2)NCCOc1ccccc1OCC(F)(F)F [Silodosin] | 0.973
CN(C)CCOc1ccc(-c2nc(-c3ccncc3)c(-c3ccc4c(c3)CC/C4=N\O)[nH]2)cc1 | 1.12
O=C(O)C1=CO[C@@H](O[C@@H]2O[C@H](CO)[C@@H](O)[C@H](O)[C@H]2O)[C@@H]2C(CO)=CC[C@H]12 [Geniposidic Acid] | 1.17
CCCCCNC(=N)N/N=C/c1c[nH]c2ccc(OC)cc12 [Tegaserod maleate] | 0.913
NS(=O)(=O)c1cc(Cl)c(Cl)c(S(N)(=O)=O)c1 [Dichlorphenamide] | 1
CS(=O)(=O)c1ccc(-c2cnc(N)c(C(=O)Nc3ccccc3)n2)cc1 | 1.01
COc1c(C)c2c(c(O)c1C/C=C(\C)CCC(=O)O)C(=O)OC2 [Mycophenolic acid] | 1.07
O=C(Oc1ccccc1C(=O)O)c1ccccc1O [Sasapyrine] | 1.03
CC(C)(O)c1ccc2c(c1)ncn2-c1cccc(-c2ccccc2C#N)c1 | 0.923
CN1c2ccccc2C(=O)Nc2cnc(Nc3ccc(N4CCC(O)CC4)cc3)nc21 | 0.863
O=C(O)CCCCC(CCSCc1ccccc1)SCc1ccccc1 (stereo unspecified) | 1.03
CC1(C)CC[C@]2(C(=O)O)CC[C@]3(C)C(=CC[C@@H]4[C@@]5(C)CC[C@H](O)C(C)(C)[C@@H]5CC[C@]43C)[C@@H]2C1 [Oleanolic Acid] | 1.15
O=c1c(-c2ccc(O)cc2)coc2cc(O)ccc12 [Daidzein] | 1.18
Cc1cc(Nc2cc(N)ncn2)c(=O)n2c1C(=O)NC21CCCCC1 | 0.907
CC(C)(C)c1nc(-c2cccc(NS(=O)(=O)c3c(F)cccc3F)c2F)c(-c2ccnc(N)n2)s1 [Dabrafenib] | 1.02
C[C@H]1O[C@@H](n2cc(F)c(=O)[nH]c2=O)[C@H](O)[C@@H]1O [Doxifluridine] | 0.809
Nc1c(CC(=O)O)cccc1C(=O)c1ccc(Br)cc1 [Bromfenac sodium] | 0.888
COc1cc2c(cc1OCCCN1CCCC1)N=C(N)C21CCC1 | 1.02
CN(C/C=C/c1ccccc1)Cc1cccc2ccccc12 [Naftifine hydrochloride] | 0.898
CC(C)CN(CC(=O)N1CCN(CC(OCc2ccc3ccccc3c2)c2ccc(Cl)cc2Cl)CC1)CC(C)C (stereo unspecified) | 1.12
Cn1nccc1Nc1nccc(-c2cc3c(s2)C(C)(C)N(CCN2CCOCC2)C3=O)n1 | 1.06
CC(=O)CCCCn1c(=O)c2c(ncn2C)n(C)c1=O [Pentoxifylline] | 1.22
